# The list shows a part of the results.
# Tested on: T1, C. trachomatis L2/434/Bu expressing GFP (CTL2-GFP)
# T1 construct: L2/434/Bu GFP intracellular growth in HeLa cells
# Design: species or system HeLa; C. trachomatis total inclusion area by high-content imaging, normalised to DMSO
# Conditions: total inclusion area; 28.5 h, 10 µM; inhibitor
# Method in brief: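 Bulk GFP and resorufin signals were read first. Wells were then fixed, stained with Hoechst and imaged to detect GFP inclusions and host nuclei. MICs followed the previously described calculation.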
row,Compound,% of control remaining
1,CCOc1ccc(C(=O)Nc2nc(-c3ccc(F)cc3)cs2)cc1 [CBK072020],94.0473
2,Cc1ccc(-c2nnc(COC(=O)c3cc(O)nc4ccccc34)o2)cc1 [CBK269741],106.667
3,O=C(O)CCC(=O)N1CCCc2ccccc21 [CBK051167],108.159
4,CCOC(=O)c1c(NC(=O)CCN2CCCCC2)sc2c1CCCCC2 [CBK265319G],90.0849
5,CS(=O)(=O)c1cccc(C(=O)n2c(=O)n(CC3CCCCC3)c3ccccc32)c1 [CBK106520],71.9227
6,Cc1nc(C)n(CCNC(=O)Cc2coc3cc(C)c(C)cc23)n1 [CBK282613],111.34
7,C=CCNc1nccnc1-c1ccccc1OC [CBK036831],103.665
8,COc1cc(CNc2cc(-c3ccc(NC(C)=O)cc3)ncn2)cc(OC)c1OC [CBK091185],151.461
9,CC12CN3CC(C)(CN(C1)C3c1ccc([N+](=O)[O-])cc1)C2 (stereo not shown) [CBK262665],84.8116
10,O=C(Cn1cccc2cc(C3CCCNC3)nc1-2)NC1CCCC1 (stereo not shown) [CBK285015],99.09
11,C=CCn1c(-c2sc(NC(=O)c3ccc(Cl)cc3F)nc2C)n[nH]c1=S [CBK295361],107.798
12,O=C(Cn1c(=O)n(Cc2cccs2)c2ncccc21)NC1CC1 [CBK283898],105.334
13,COc1ccc2nc(Nc3nnc(-c4ccco4)o3)sc2c1 [CBK287486],98.2055
14,O=C(O)c1ccc(COc2cccc(/C=N\O)c2)cc1 [CBK288501],113.122
15,COc1ccccc1C(=O)N[C@H]1C[C@@H](c2nc(-c3cnccn3)no2)N(C)C1 [CBK288850],108.081
16,CC(C)(C)c1cc(N2C(=O)C(O)=C(C(=O)c3ccc(Cl)cc3)C2c2cccc([N+](=O)[O-])c2)no1 (stereo not shown) [CBK263470],89.989
17,CCCn1cc(CN2C3CCC2CC(O)(c2ccc(F)cc2)C3)cn1 (stereo not shown) [CBK282971],89.8955
18,CN(C)CCN1CCN(c2nc(-c3ccc4[nH]ccc4c3)cn3ccnc23)CC1 [CBK036587],123.609
19,COC(=O)c1cc(C#N)c(=O)n(CC(O)COCc2ccco2)c1 (stereo not shown) [CBK305718],91.2263
20,Nc1nc(CN2CCN(c3ccccc3F)CC2)nc(N2CCCc3ccccc32)n1 [CBK270234],55.6119

row,Compound,% of control remaining
1,COc1ccc([C@]23CC[C@H](NC(=O)Nc4ccc(F)cc4F)C[C@H]2N(C)CC3)cc1OC [CBK066917T],98.155
2,CC(C)c1ccc(CN2CCCN(c3cc(OCCc4c[nH]c5ccccc45)ncn3)CC2)cc1 [CBK083280T],57.3564
3,Cc1c(C(=O)N2CCNC(=O)C2(C)C)nnn1Cc1ccc(F)cc1F [CBK305461],48.0271
4,CC(=O)c1c(CSc2ccccc2)nn2c1CCCC2 [CBK016543],56.2776
5,c1cncc(-c2cnn(-c3ccc4[nH]ccc4c3)n2)c1 [CBK112820],100.619
6,COc1ccc(C(=O)N2CCC3(CCCN(CC(=O)Nc4ncccn4)C3)C2)cc1OC (stereo not shown) [CBK132860],88.3149
7,COc1cc(C)nc(OCCNS(=O)(=O)c2cc(C)ccc2C)n1 [CBK058870],113.445
8,COc1cc(CC(=O)Nc2cccc(-c3ccc(SC(F)(F)F)cc3)c2)cc(OC)c1OC [CBK132426],87.8971
9,O=S(=O)(NCc1ccc(F)cc1Cl)c1ccc(Cl)c(Cl)c1 [CBK043785],79.9317
10,Cc1cc(S(=O)(=O)Nc2ccc3[nH]ccc3c2)c(C)o1 [CBK155743],90.6254
11,Cc1cc(Oc2ccc(Cl)cc2Cl)nc(OCC#N)n1 [CBK019232],92.4259
12,O=c1[nH]ccn1CCNc1ccc(-c2cccc3cccnc23)cn1 [CBK037658],85.5684
13,CS(=O)(=O)c1cc(Br)cc(C(=O)NCCNc2cnccn2)c1F [CBK305731],65.6206
14,CS(=O)(=O)Nc1nccnc1-c1ccc2c(c1)OCO2 [CBK050934],98.4912
15,CC(=O)c1sccc1NS(=O)(=O)c1ccccc1 [CBK038384],85.817
16,COc1ccc(-c2nnn(C3CCNCC3)n2)cc1OC [CBK269870C],92.3298
17,CCCC/C=C/c1cnc2[nH]c(=O)n(CC(C)C)c2n1 [CBK064225],120.097
18,CS(=O)(=O)N1CCN(c2ccccc2NC(=O)CSc2ccc(Cl)cc2)CC1 [CBK267607],107.023
19,O=C(NC(c1ccc(Cl)cc1)c1ccsc1)C1CCN(C(=O)Oc2ccc(Cl)cc2)CC1 (stereo not shown) [CBK060044],88.4104
20,COc1cccc(C2CC(=O)c3c(ccc4ccccc34)N2)c1OC (stereo not shown) [CBK262971],84.7606
